Screen size: about 39,000 compounds; about 220 (0.56%) showed activity. This is one part of the list.
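Further: static incubation at 37 °C against the wild-type strain, values averaged over two biological replicates.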

The assay has as its system Escherichia coli K-12 BW25113. Kind of assay: relative growth (OD600 normalised to plate interquartile mean) (fraction); higher = less growth inhibition, active = 0.2 or less. The settings on record: 50 µM; LB; incubation time: overnight (16-24 h).
As for `C[C@@H]1CN([C@@H](C)CO)C(=O)c2cc(N(C)C)ccc2O[C@@H](C)CCCCO[C@H]1CN(C)S(=O)(=O)c1cn(C)cn1`, the relative growth was inactive: 0.885.

`CCOC(=O)C1CCN(S(=O)(=O)c2c(C)n(C)c(=O)n(C)c2=O)CC1`: the relative growth is inactive: 0.984.

For the compound `CN1CCN2CCN(C(=O)c3cccc(N)c3)C[C@@H]2C1=O`, the relative growth was inactive: 1.03.

Consider `CC(=O)N1[C@@H]2c3ccc(-c4ccccc4)c(=O)n3C[C@H]1[C@H](CO)[C@H]2C(=O)N1CCN(C)CC1`, for which the relative growth was inactive: 0.982.

Consider `Cc1noc(C)c1S(=O)(=O)Nc1ccc2c(c1)CC(=O)N([C@@H](C)CO)C[C@@H](C)[C@H](CN(C)S(C)(=O)=O)O2`, for which the relative growth was inactive: 0.975.

`C[C@H](CO)N1C[C@H](C)[C@H](CN(C)S(=O)(=O)c2cn(C)cn2)Oc2cc(C3=CCCC3)ccc2S1(=O)=O`: the relative growth was inactive: 0.991.

With `COc1ccc(NC(=O)Nc2ccc3c(c2)CC(=O)N([C@@H](C)CO)C[C@H](C)[C@H](CN(C)Cc2ccc(C(F)(F)F)cc2)O3)cc1`, the relative growth is inactive: 1.03.

As for `Nc1nc(=O)c2nc(Br)n([C@H]3O[C@H]4CO[PH](O)(O)O[C@@H]4[C@@H]3O)c2[nH]1`, the relative growth was inactive: 1.

Turning to `C[C@@H]1CN([C@@H](C)CO)C(=O)Cc2cc(NC(=O)NC3CCCCC3)ccc2O[C@@H]1CN(C)C(=O)Nc1ccc(C(F)(F)F)cc1`, the relative growth is inactive: 1.04.

`C[C@@H]1CCCCO[C@@H](CN(C)CC2CCCCC2)[C@H](C)CN([C@H](C)CO)C(=O)c2cc(NS(=O)(=O)c3ccccc3)ccc2O1`: the relative growth is inactive: 0.979.

As for `C[C@H](CO)N1C[C@H](C)[C@H](CN(C)S(=O)(=O)c2cn(C)cn2)Oc2cc(C3=CCCCC3)ccc2S1(=O)=O`, the relative growth was inactive: 1.02.

For `NC(=O)NCC#Cc1ccc2c(c1)[C@]1(C(=O)N2)[C@H](c2ccc(O)cc2)N2[C@H](c3ccccc3)[C@H](c3ccccc3)OC(=O)[C@H]2[C@@H]1C(N)=O`, the relative growth is inactive: 0.955.

As to `COC(=O)C(c1ccccc1Cl)N1CCc2sccc2C1.O=S(=O)(O)O` (stereo not drawn), the relative growth was inactive: 1.07.

On to `C[C@@H]1CN([C@H](C)CO)C(=O)c2cc(NC(=O)Cc3ccccc3)ccc2O[C@H]1CN(C)S(=O)(=O)c1cn(C)cn1`, for which the relative growth is inactive: 0.948.

In the case of `O=C(C=Cc1ccccc1)c1ccc(O)cc1O`, the relative growth is inactive: 0.917.

For `C[C@H]1CN([C@@H](C)CO)C(=O)c2c(c3ccccc3n2C)-c2ccccc2CO[C@@H]1CN(C)C(=O)NC1CCCCC1`, the relative growth was inactive: 1.

As for `C[C@@H]1CN([C@@H](C)CO)C(=O)c2cc(NC(=O)Nc3ccccc3)ccc2O[C@@H]1CN(C)S(=O)(=O)c1cn(C)cn1`, the relative growth is inactive: 1.02.

Turning to `Cc1ccc(S(=O)(=O)Nc2ccc3c(c2)C(=O)N([C@@H](C)CO)C[C@@H](C)[C@@H](CN(C)C(=O)NC2CCCCC2)OCCCC[C@@H](C)O3)cc1`, the relative growth is inactive: 1.04.

As for `O=C(O)c1ccc2cc(-c3ccc(O)c(C45CC6CC(CC(C6)C4)C5)c3)ccc2c1`, the relative growth is inactive: 0.767.

`CN1C(=O)c2cc(NC(=O)c3ccc(F)c(F)c3)ccc2OC[C@@H]2O[C@H](CC(=O)N3CCOCC3)CC[C@@H]21`: the relative growth was inactive: 1.

For the compound `COc1ccc(S(=O)(=O)Nc2ccc3c(c2)CC(=O)N([C@H](C)CO)C[C@@H](C)[C@H](CN(C)S(C)(=O)=O)O3)cc1`, the relative growth is inactive: 0.978.

For the compound `O=C(O)c1cc(O[C@@H]2O[C@H](CO)[C@@H](O)[C@H](O)[C@H]2O)c2ccccc2c1O`, the relative growth is inactive: 0.982.

For `COc1ccc(NC(=O)N(C)C[C@@H]2OCCCC[C@H](C)Oc3ccc(NC(=O)NC(C)C)cc3C(=O)N([C@H](C)CO)C[C@@H]2C)cc1`, the relative growth was inactive: 1.04.

On to `CNC(=O)N1C[C@H]2C[C@@H]3[C@@](C1)(CN(C)S3(=O)=O)O2`, for which the relative growth was inactive: 0.975.

In the case of `Cc1ccc(S(=O)(=O)N(C)C[C@H]2Oc3ccc(NC(=O)NC(C)C)cc3CC(=O)N([C@H](C)CO)C[C@H]2C)cc1`, the relative growth is inactive: 1.04.

In the case of `COc1ccc(S(=O)(=O)N(C)C[C@@H]2Oc3c(NS(=O)(=O)c4ccc(F)cc4)cccc3C(=O)N([C@H](C)CO)C[C@@H]2C)cc1`, the relative growth was inactive: 0.999.

With `COc1ccc(S(=O)(=O)N2C[C@H](O)COC[C@@H]3O[C@H](CC(=O)NCc4ccc(Cl)c(Cl)c4)CC[C@H]32)cc1`, the relative growth was inactive: 1.

Turning to `COc1ccc(S(=O)(=O)N(C)C[C@H]2OCCCC[C@@H](C)Oc3ccc(NC(=O)CCCCCC(=O)Nc4ccccc4N)cc3C(=O)N([C@H](C)CO)C[C@H]2C)cc1`, the relative growth is inactive: 0.998.

Regarding `COc1ccccc1-c1ccc2c(c1)O[C@@H](CN(C)C(=O)c1cccnc1)[C@H](C)CN([C@@H](C)CO)S2(=O)=O`, the relative growth was inactive: 1.01.

Take `CN(C)CC(=O)N[C@H]1CC[C@@H](CCNC(=O)C2CC2)O[C@@H]1CO`: the relative growth is inactive: 1.01.

Take `COCc1nnc2n1CCN(C(=O)c1ccn[nH]1)C2`: the relative growth is inactive: 1.01.

Consider `COc1ccc(S(=O)(=O)N(C)C[C@@H]2Oc3c(NS(=O)(=O)c4ccc(C)cc4)cccc3C(=O)N([C@@H](C)CO)C[C@H]2C)cc1`, for which the relative growth is inactive: 1.04.

Turning to `COc1ccc(S(=O)(=O)Nc2ccc3c(c2)CC(=O)N([C@@H](C)CO)C[C@H](C)[C@@H](CN(C)S(=O)(=O)c2cn(C)cn2)O3)cc1`, the relative growth was inactive: 0.998.

`C[C@H]1CCCCO[C@H](CN(C)C(=O)Nc2ccc3c(c2)OCO3)[C@@H](C)CN([C@@H](C)CO)C(=O)c2cc(NC(=O)Nc3ccc(C(F)(F)F)cc3)ccc2O1`: the relative growth was inactive: 0.976.

In the case of `COc1ccc(S(=O)(=O)Nc2ccc3c(c2)[C@H]2C[C@@H](CC(=O)NCC4CC4)O[C@H](CO)[C@H]2O3)cc1`, the relative growth is inactive: 1.02.

Take `O=C(C[C@H]1C=C[C@@H](NC(=O)c2cccc(F)c2)[C@H](CO)O1)NCCN1CCCC1`: the relative growth is inactive: 0.999.

As to `COc1ccc(S(=O)(=O)Nc2ccc3c(c2)C(=O)N([C@H](C)CO)C[C@@H](C)[C@@H](CN(C)C(=O)Nc2cccc4ccccc24)O3)cc1`, the relative growth is inactive: 1.01.

Turning to `COc1ccc(NC(=O)N(C)C[C@@H]2Oc3ccc(NS(=O)(=O)c4cn(C)cn4)cc3CC(=O)N([C@@H](C)CO)C[C@H]2C)cc1`, the relative growth is inactive: 0.997.

Source of the values: the supplement of paper PMC9446081.
